The whole screen tested about 39,000 compounds, of which about 220 (0.56%) showed activity. The list shows a part of the results.

These results are taken from the supplement of paper PMC9446081.
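Also: static incubation at 37 °C against the wild-type strain, values averaged over two biological replicates.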

This experiment deals with Escherichia coli K-12 BW25113. The experiment is described as follows: relative growth (OD600 normalised to plate interquartile mean) (fraction); higher = less growth inhibition, active = 0.2 or less. Particulars: 50 µM; LB; incubation time: overnight (16-24 h).
Take `C[C@@H]1CN([C@@H](C)CO)C(=O)c2cc(NS(=O)(=O)c3ccc(F)cc3)ccc2O[C@@H](C)CCCCO[C@@H]1CN(C)S(=O)(=O)c1ccc(Cl)cc1`: the relative growth was inactive: 1.03.

Turning to `COc1ccc([C@@H]2CC=CC[C@H](C)Oc3ccccc3C(=O)N(C)[C@@H](Cc3ccccc3)C(=O)N2)c(OC)c1`, the relative growth was inactive: 1.01. As for `O=C(O)CCSc1n[nH]c(=O)[nH]c1=O`, the figure is inactive: 0.955. As for `Cc1ccc(S(=O)(=O)N(C)C[C@H]2OCCCC[C@H](C)Oc3ccc(NS(=O)(=O)c4ccc(F)cc4)cc3C(=O)N([C@@H](C)CO)C[C@H]2C)cc1`, the relative growth is inactive: 0.955. On to `CSC1=NCCN1`, for which the relative growth is inactive: 1.01. For the compound `C#CC1(OC(C)=O)CCC2C3CCC4=CC(OC(C)=O)CCC4C3CCC21C` (centres undefined), the relative growth was inactive: 0.962. Then `CN1C(=O)c2cc(NC(=O)Cc3cccs3)ccc2OC[C@H]2O[C@H](CC(=O)NCCCN3CCOCC3)CC[C@@H]21`, with inactive: 0.998.

On to `Cc1csc2ccc(F)cc12`, for which the relative growth is inactive: 1.02. Then `COc1ccc([Si](C)(C)[C@H]2[C@H](CC(=O)N3CCC[C@H]3CO)O[C@@]3(C(=O)N(Cc4cccc(N5CCCCC5=O)c4)c4ccccc43)[C@@H]2C)cc1`, with inactive: 1.02. Then `COc1ccc2[nH]c(S(=O)Cc3ncc(C)c(OC)c3C)nc2n1` (centres undefined), with inactive: 1.11; and `COc1ccc(S(=O)(=O)N2C[C@H](O)COC[C@H]3O[C@@H](CC(=O)NCCN4CCCCC4)CC[C@@H]32)cc1`, with inactive: 0.963. For the compound `O=C(CN1CCOCC1)N[C@H]1CC[C@@H](CCNC(=O)Nc2cc(F)ccc2F)O[C@H]1CO`, the relative growth was inactive: 0.975.

For the compound `C[C@@H]1CN([C@H](C)CO)C(=O)c2cc(NC(=O)c3ccncc3)ccc2O[C@@H](C)CCCCO[C@H]1CN(C)Cc1ccc(C(F)(F)F)cc1`, the relative growth is inactive: 1. As for `C[C@H]1CCCCO[C@H](CN(C)S(=O)(=O)c2ccc(Cl)cc2)[C@@H](C)CN([C@@H](C)CO)C(=O)c2cc(NS(=O)(=O)c3ccc(Cl)cc3)ccc2O1`, the figure is inactive: 1.02; as for `CCS(=O)(=O)Nc1ccc2c(c1)C(=O)N(C)[C@@H]1CC[C@H](CC(=O)N[C@H]3CCN(Cc4ccccc4)C3)O[C@@H]1CO2`, inactive: 1.01.

Consider `C[C@@H]1CN([C@@H](C)CO)C(=O)c2cc(NC(=O)Nc3ccc(C(F)(F)F)cc3)ccc2O[C@@H](C)CCCCO[C@H]1CN(C)C(=O)Nc1ccccc1`, for which the relative growth is inactive: 0.985. As for `CNC[C@@H]1OCCCC[C@@H](C)Oc2ccc(NC(=O)Nc3ccc(C(F)(F)F)cc3)cc2C(=O)N([C@H](C)CO)C[C@H]1C`, the figure is inactive: 0.95; as for `CC(C)CN1C(=O)[C@@]2(c3ccc([N+](=O)[O-])cc3)CC(=O)N(CC34CC5CC(CC(C5)C3)C4)[C@@H]2c2ccc(CO)cc21`, inactive: 1.01; as for `O=C(C[C@@H]1CC[C@@H]2[C@H](COC[C@@H](O)CN2S(=O)(=O)c2ccc(Cl)cc2)O1)NCCN1CCCC1`, inactive: 1.

As to `C[C@@H]1CN([C@@H](C)CO)C(=O)c2cccc(NC(=O)C3CC3)c2O[C@@H]1CN(C)Cc1ccc(Oc2ccccc2)cc1`, the relative growth is inactive: 1.03. As for `C[C@@H]1CCCCO[C@H](CN(C)CC2CC2)[C@H](C)CN([C@@H](C)CO)C(=O)c2cc(NC(=O)Nc3ccc(F)cc3)ccc2O1`, the figure is inactive: 1.05; as for `C[C@H](CO)N1C[C@H](C)[C@@H](CN(C)C(=O)c2ccccc2)OCCCC[C@H](C)Oc2ccc(NS(=O)(=O)c3ccc(F)cc3)cc2C1=O`, inactive: 0.98; as for `C[C@H](CO)N1C[C@H](C)[C@H](CN(C)S(=O)(=O)c2ccc(Cl)cc2)OCCCC[C@H](C)Oc2ccc(NC(=O)Nc3ccc(F)cc3)cc2C1=O`, inactive: 0.991. `CCN1CCCC1CNC(=O)c1cc(S(=O)(=O)CC)c(N)cc1OC` (centres undefined): the relative growth is inactive: 0.797. Then `C[C@@H]1CN([C@H](C)CO)C(=O)Cc2cc(NC(=O)Nc3cccc4ccccc34)ccc2O[C@@H]1CN(C)Cc1ccncc1`, with inactive: 0.976; and `COc1ccccc1S(=O)(=O)N[C@@H]1CC[C@H](CCNC(=O)C2CCOCC2)O[C@@H]1CO`, with inactive: 0.996; and `Cc1ccc(S(=O)(=O)Nc2cccc3c2O[C@H](CN(C)Cc2ccc(C(F)(F)F)cc2)[C@H](C)CN([C@H](C)CO)C3=O)cc1`, with inactive: 1. Then `C[C@@H]1CN([C@@H](C)CO)C(=O)c2cc(NC(=O)CCC(F)(F)F)ccc2O[C@@H](C)CCCCO[C@@H]1CN(C)S(=O)(=O)c1ccccc1`, with inactive: 1.02; and `Cc1cc(C(=O)Nc2cccc3c2O[C@@H](CN(C)Cc2ccccc2)[C@@H](C)CN([C@@H](C)CO)C3=O)n(C)n1`, with inactive: 0.951; and `CC(=O)O[C@@H]1[C@@H](O)C[C@@]2(C)[C@@H](CC[C@@H](C)[C@@]23Cc2c(O)cc4c(c2O3)CN([C@@H](CCC(=O)O)C(=O)O)C4=O)C1(C)C`, with inactive: 1.02. Then `CCCC(=O)Nc1ccc2c(c1)OC[C@@H](C)N(Cc1cc(-c3ccccc3)on1)C[C@@H](C)[C@H](OC)CN(C)C2=O`, with inactive: 1; and `CO[C@@H]1CN(C)C(=O)c2cc(NC(=O)C3CC3)ccc2OC[C@@H](C)N(C(=O)Cc2ccccn2)C[C@H]1C`, with inactive: 0.973. Consider `COc1cccc(S(=O)(=O)N(C)C[C@H]2Oc3cc(C#CCN(C)C)ccc3S(=O)(=O)N([C@@H](C)CO)C[C@H]2C)c1`, for which the relative growth was inactive: 1.04. On to `CCCC(=O)Nc1ccc2c(c1)OC[C@H](C)N(S(=O)(=O)c1cn(C)cn1)C[C@@H](C)[C@H](OC)CN(C)C2=O`, for which the relative growth was inactive: 1.02. `CO[C@@H](CN(C)S(=O)(=O)c1cccc(Cl)c1)[C@H](C)CN([C@H](C)CO)S(=O)(=O)c1ccc(Cl)cc1`: the relative growth was inactive: 1.04. As to `CN1C(=O)c2cc(NC(=O)c3cscn3)ccc2OC[C@H]2O[C@@H](CC(=O)N3CCOCC3)CC[C@@H]21`, the relative growth was inactive: 0.995. Turning to `O=C(CN1CCOCC1)NCC[C@@H]1CC[C@@H](NC(=O)c2ccc3c(c2)OCO3)[C@H](CO)O1`, the relative growth is inactive: 1.03. As for `C[C@@H]1CN([C@H](C)CO)C(=O)c2cc(NS(C)(=O)=O)ccc2O[C@@H]1CN(C)Cc1ccc(C(=O)Nc2ccccc2N)cc1`, the figure is inactive: 1.01; as for `Cc1ccc(O)c(CO)n1`, inactive: 1.04; as for `CC(=O)N(C)CP(=O)(O)CN1CCCC1=O`, inactive: 1.03. Consider `C[C@H]1CN([C@@H](C)CO)C(=O)c2cc(NS(C)(=O)=O)ccc2O[C@@H]1CN(C)Cc1ccc2c(c1)OCO2`, for which the relative growth was inactive: 0.987. As for `C[C@H](CO)N1C[C@H](C)[C@@H](CN(C)S(=O)(=O)c2ccccc2)Oc2ccc(NC(=O)Nc3cccc4ccccc34)cc2C1=O`, the figure is inactive: 1. Then `COc1ccc(S(=O)(=O)Nc2ccc3c(c2)C(=O)N([C@H](C)CO)C[C@H](C)[C@@H](CN(C)S(=O)(=O)c2ccc(OC)cc2)O3)cc1`, with inactive: 1.05; and `COc1ccc(S(=O)(=O)Nc2ccc3c(c2)CC(=O)N([C@H](C)CO)C[C@H](C)[C@H](CN(C)Cc2ccncc2)O3)cc1`, with inactive: 0.996. Turning to `COc1ccc(S(=O)(=O)N[C@@H]2C=C[C@H](CC(=O)NCCc3ccncc3)O[C@@H]2CO)cc1`, the relative growth is inactive: 1.01.

On to `C#CC1(O)CCC2C3CCC4=CCCCC4C3CCC21C` (centres undefined), for which the relative growth was inactive: 1.05. Then `C[C@H](CO)N1C[C@H](C)[C@H](CN(C)Cc2ccc(-c3ccccc3)cc2)Oc2ccc(NC(=O)CCC(F)(F)F)cc2CC1=O`, with inactive: 0.986; and `C=CCOC(=O)[C@H]1[C@@H]2C(=O)O[C@@H](c3ccccc3)[C@@H](c3ccccc3)N2[C@@H](c2ccc(OCCOC(=O)[C@@H]3C[C@@H]4C(=O)N[C@@H](CCCC[N+](C)(C)C)C(=O)N4[C@@H]3c3ccc(O)cc3)cc2)[C@]12C(=O)Nc1ccc(I)cc12`, with inactive: 1.01; and `C[C@@H]1CN([C@@H](C)CO)C(=O)c2cccc(NS(=O)(=O)c3cccs3)c2O[C@H]1CN(C)C(=O)Nc1cccc2ccccc12`, with inactive: 1.01. As for `COc1ccc(NC(=O)N2C[C@@H](O)COC[C@@H]3O[C@H](CC(=O)NCc4ccccc4OC)CC[C@H]32)cc1`, the figure is inactive: 1.01; as for `C[C@@H]1CN([C@H](C)CO)C(=O)c2c(c3ccccc3n2C)-c2ccccc2CO[C@H]1CN(C)C(=O)Nc1cccc(C(F)(F)F)c1`, inactive: 0.993; as for `COCC(=O)N1C[C@@H](C)[C@@H](OC)CN(C)C(=O)c2ccc(NC(=O)c3cc(C)on3)cc2OC[C@@H]1C`, inactive: 0.975. Turning to `COCCNC(=O)C[C@H]1CC[C@H]2[C@@H](COC[C@@H](O)CN2C(=O)Nc2ccc3c(c2)OCO3)O1`, the relative growth was inactive: 1.02.

Regarding `O=C(O)[C@H]1O[C@@H](Oc2c(-c3ccc(O)cc3)oc3cc(O)cc(O)c3c2=O)[C@H](O)[C@@H](O)[C@@H]1O`, the relative growth is inactive: 1.01. On to `CO[C@H](CN(C)S(=O)(=O)c1cn(C)cn1)[C@H](C)CN(C(=O)Nc1ccc(C(F)(F)F)cc1)[C@@H](C)CO`, for which the relative growth was inactive: 0.872.

On to `C[N+](C)(C)CCCC[C@@H]1NC(=O)[C@@H]2C[C@H](C(=O)NCCCCCCNC(=O)CS)[C@H](c3cccc(OCCO)c3)N2C1=O`, for which the relative growth was inactive: 1.01.

Take `O=C(C[C@H]1CC[C@H]2[C@@H](COC[C@@H](O)CN2S(=O)(=O)c2ccc(Cl)cc2)O1)NCc1ccncn1`: the relative growth is inactive: 0.988.

In the case of `COc1ccc(NC(=O)Nc2ccc3c(c2)[C@@H]2C[C@@H](CC(=O)NCc4ccncc4)O[C@H](CO)[C@@H]2O3)cc1`, the relative growth is inactive: 0.937. Then `Cc1noc(C)c1S(=O)(=O)N(C)C[C@@H]1OCCCC[C@H](C)Oc2ccc(NC(=O)Nc3cccc4ccccc34)cc2C(=O)N([C@H](C)CO)C[C@H]1C`, with inactive: 1.04.
